# Results taken from ChEMBL document CHEMBL4888484, “Replenishing the malaria drug discovery pipeline: Screening and hit evaluation of the MMV Hit Generation Library 1 (HGL1) against asexual blood stage Plasmodium falciparum ,using a nano luciferase reporter read-out” (2022).
# Hit rate of the full screen: of about 150,000 compounds, about 540 (0.36%) showed an effect of 50% or more. This is one part of the list.
# System: Plasmodium falciparum
# Test: Primary screen in NF54 nanoGlo assay, in single point, at 2uM, 72h; a lower Z score goes with more inhibition
# Format: functional, Erythrocyte
# Settings: timepoint 72 hour
Structure (SMILES),% Inhibition,Z score
Cc1ccc(C(=O)N2CCN(S(=O)(=O)c3ccc4c(c3)NC(=O)[C@H](C)O4)CC2)cc1,-14%,1.4
CCN(CC)c1ncnc2c(-c3ccccc3)cn(CC(=O)N3CCN(c4ccccc4OC)CC3)c12,-2%,0.24
O=C1N[C@@H](CO)C(=O)N1c1ccccc1OC(F)(F)F,2%,-0.2
Cc1cccc(CNC(=O)c2ccc(N3CCOc4ccccc43)s2)c1,0%,0.09
Cc1ccc(C(=O)N2CCN(c3ccccc3F)CC2)cc1N(C)S(C)(=O)=O,-17%,2.07
CN(C(=O)Cc1ccc2c(c1)OCO2)[C@H]1CCCc2c1cnn2C,-9%,1.27
Cc1ccccc1C[C@@]1(C2CCN(C(=O)C(C)(C)C)CC2)NC(=O)N(CCCN(C)C)C1=O,-5%,0.58
O=C(Cc1ccc(S(=O)(=O)Nc2ccc(F)cc2)s1)N1CCCC1,1%,-0.13
COc1ccc2c(c1)C(C(=O)N1CC3CCC1C(C(=O)O)C3)CCC2 (configuration not stated),-8%,1.2
CCn1cc(NC(=O)NCc2cccnc2N2CCOCC2)cn1,-7%,0.97
COc1ccccc1C1CN(C(=O)CC(C)(C)C)CC1C(=O)NC1CC1 (configuration not stated),-16%,1.49
CCS(=O)(=O)CC(C)NC1CC(NC(=O)OC(C)(C)C)C1(C)C (configuration not stated),2%,-0.31
CCn1c2ccccc2c2cc([C@H]3N[C@@](C)(CO)[C@H]4CN(C)C[C@@H]34)ccc21,1%,-0.11
COc1ccc2c(c1)OCC[C@@H]2NC(=O)c1cc(C)c(C)cn1,-4%,0.67
OC1CCN([C@H]2CCN(Cc3ccc(C(F)(F)F)cc3)C[C@@H]2O)CC1,-4%,0.54
CCCCN(Cc1ccccc1)c1ccc(C(=O)O)cc1NS(=O)(=O)c1ccccc1Cl,5%,-0.86
CCN(Cc1nc(C(C)C)no1)C(=O)c1ccoc1,-3%,0.43
CCCN(C(=O)Nc1ccc(Cl)cc1)c1nc(-c2ccc(C3CCCCC3)cc2)cs1,-7%,1.12
N#Cc1c(Br)cccc1NCC(F)(F)CN,-16%,2.43
Cc1ccc(C#N)c(N2C[C@@H]3OC(=O)N(CCCN4CCOCC4)[C@@H]3C2)n1,-12%,2.36
CC1CC(C)(C)C(CNC(=O)C2(C#N)CCC2)C1NC(=O)C1(C#N)CCC1 (configuration not stated),-11%,2.14

Structure (SMILES),% Inhibition,Z score
Cc1ccc([C@H](C)NCC(=O)NCC(F)(F)F)c(C)c1,-8%,0.9
COC(=O)C(NCC1COC2(CCC(C)CC2)O1)c1cccnc1 (configuration not stated),-9%,1.18
C#CC(C)(C)OC[C@@H](O)CN1CCOCC1,-5%,0.45
CC1(C)CO[C@@H](CC(=O)N2CCOC3(CCS(=O)(=O)CC3)C2)C1,0%,0.06
O=S(=O)(c1ccc(CC(F)(F)F)cc1)N1CCOCC12CCC2,34%,-4.9
C[C@@H](Cc1ccc(O)cc1)N1CCC(n2cc(C3CC3)nn2)CC1,-6%,0.94
O=C(c1cnc(C(F)(F)F)nc1)N1CCCC[C@@H]1Cn1ccnn1,-7%,0.79
O=S(=O)(NC1CCN(c2ncnc3c2CCCC3)CC1)C1CC1,-7%,0.91
O=C(COCc1ccccc1)N1CC[C@H](Oc2cc(C(F)(F)F)ccn2)C1,-9%,1.64
CC(C)n1c(=O)sc2cc(S(=O)(=O)N3CCN(C(=O)CCc4c[nH]c5ccccc45)CC3)ccc21,-21%,2.08
COc1nccnc1CN[C@H](c1ccccc1)C1(CO)CCC1,3%,-0.35
COc1ccc(-n2c(N)c(NC(=O)Nc3cccc(Cl)c3)c(=O)[nH]c2=O)cc1,12%,-1.54
COc1ccccc1-c1cc(C(=O)NC2CCCCC2)nc2cc(-c3ccccc3)nn12,-12%,1.32
COc1ccccc1COc1cc(NC(=O)NC(C)(C)C)ncn1,-10%,1.9
COc1ccc(CN2CCC3(CCCC3)C2)cc1OC[C@@H](O)CN1CCCC1,-11%,1.99
COc1cc(CN(C)Cc2cc(C)no2)ccc1OC[C@@H](O)CN1CCCCCC1,7%,-0.97
O=C(COc1cccc(C(F)(F)F)c1)N1CCN(c2cc(-n3cncn3)ncn2)CC1,-11%,1.67
Cn1cc(Cl)c(C(=O)NC(C)(C)c2nc3ccccc3s2)n1,4%,-0.56
Cn1cc(S(=O)(=O)N[C@H]2C[C@@H](c3cc(N4CCOCC4)ncn3)C2)cn1,-13%,1.19
Cc1nccn1CC(=O)N1CCCN(C(=O)CC2CCCC2)CC1,-20%,1.89
CC1CC(C)CN(S(=O)(=O)c2ccc(C(=O)Nc3ncnc4sccc34)cc2)C1 (configuration not stated),-5%,0.76

Structure (SMILES),% Inhibition,Z score
O=C(Cc1ccc(F)cc1)NC[C@]1(O)CCOc2ccccc21,18%,-2.54
O=C1CCCN1[C@H]1CCCN(Cc2cccc(O)c2)CC1,-7%,0.7
Cc1noc([C@H]2CN(C(=O)Nc3ccc(Cl)cc3C)CC23CCOCC3)n1,-5%,0.87
O=S1(=O)CC[C@H](Cc2nc(C3CC3)nn2-c2ccccn2)C1,-13%,1.82
O=C(COc1ccccc1Cl)Nc1ccc(-n2cnnn2)cc1,-5%,0.75
COc1ccc(OC)c(N(CC(=O)NCc2ccc3c(c2)OCO3)S(C)(=O)=O)c1,-7%,1.01
c1ccc(-c2nnn(Cc3noc(-c4ccco4)n3)n2)cc1,3%,-0.4
CN1CCN(c2ccccc2NC(=O)NCc2ccccc2)CC1,1%,-0.12
O=C(CN1C(=O)CC(Cc2ccc(F)cc2)C1=O)NCC1CCCO1 (configuration not stated),8%,-1.06
CCCCS(=O)(=O)N[C@H]1COC[C@@H]1N1CCN(C)CC1,-9%,1.84
CCOC(=O)C1CCN(c2ccc(-c3nc(-c4ccc(C)cc4)no3)cn2)CC1,-8%,0.86
CCN(CC)C(=O)c1ccc2c(c1)n(Cc1cccc(OC)c1)c(=O)c1ccnn12,-10%,1.53
CC[C@@H]1Oc2ccc(NC(=O)Cc3ccccc3)cc2CN(CCc2ccc(OC)c(OC)c2)C1=O,3%,-0.47
CN1C(=O)c2ccc(-c3ccc(F)cc3F)cc2O[C@H]2CN(C3CCCC3)C[C@H]21,-4%,0.54
CN1CCN(S(=O)(=O)c2ccccc2CNc2cnccn2)CC1,-13%,1.97
COC(=O)CNC(=O)[C@@H](NC(=O)c1c(F)cccc1F)C(C)C,-3%,0.5
O=C(CN1CCCC1)NCC[C@H]1CCCOC1,-8%,1.31
CN(Cc1cccn1-c1nccs1)C[C@H]1CCCCO1,1%,-0.1
COc1ccc2c(=O)c(C(=O)c3ccncc3)cn(CC(=O)Nc3ccc4c(c3)OCCO4)c2c1,5%,-0.75
Cc1ccc(CNc2nnc(-c3ccco3)o2)o1,-10%,0.93
CCn1nccc1C(=O)NC1CCN(c2nnc3ccc(Cl)cn23)CC1,36%,-0.94

Structure (SMILES),% Inhibition,Z score
O=C(c1cc(=O)c(OCc2ccccc2)c[nH]1)N1CCN(c2cccc(C(F)(F)F)c2)CC1,23%,-3.04
CCc1ncnc(N2CC[C@H](Cc3nnn[nH]3)C2)c1F,-13%,1.77
CS(=O)(=O)N1CCN(C(=O)c2ccc(N3CCC(Cc4ccccc4)CC3)nn2)CC1,-12%,2.07
OCC1(CNc2cc(-c3ccccc3)n3ncnc3n2)CCOCC1,-8%,0.86
CNC(=O)[C@@H]1CCCC[C@@H]1C(=O)N1CCCC2(CCOCC2)C1,-10%,1.36
CCn1ccnc1CN(C)Cc1cnc(C(C)C)nc1,5%,-1
O=C(COc1ccccc1C(=O)c1cnn(-c2ccccc2)c1)NCc1cccc(Cl)c1,-6%,1.04
Cn1cccc1C(=O)N1CCn2c(nnc2[C@@H]2CCCCN2S(C)(=O)=O)C1,2%,-0.28
Cn1nc(O)c2c1CN(CC(=O)NCCc1ccc(F)cc1)CC2,-4%,0.53
NC(=O)c1cc(NC(=O)C2(Cc3cccc(F)c3)CCCCC2)c[nH]1,4%,-0.39
COc1ccc2nc(N3C(=O)c4ccccc4C3=O)sc2c1,-8%,1.01
COc1c(C(=O)N2CCc3n[nH]c(C(F)F)c3C2)c(C)nn1C,-3%,0.36
CCn1c(=O)c(C)nc2cc(C(=O)Nc3ccccc3C(=O)Nc3ccc4c(c3)OCO4)ccc21,-6%,0.68
O=C(NC[C@H]1CNCCO1)c1nc2c(s1)CCCC2,0%,0.03
O=S(=O)(c1c(F)cccc1Br)N1CC[C@@H](O)C1,-2%,0.46
CC(C)c1cc(C(=O)N2CCS(=O)(=O)C(C)C2C)on1 (configuration not stated),0%,0.04
CCN1C(=O)c2ccccc2Oc2ccc(C(=O)Nc3ccc(C)cc3C)cc21,-14%,1.99
C[C@H](NC(=O)c1cnn(CC(=O)NC2CCCCC2)c1)C(C)(C)C,-20%,2.85
